# Results taken from the antibiotic and cytotoxicity screens of Wong et al. (2023).
# Some of the results follow.
# Tested on: HSkMC (human skeletal muscle cells)
# Assay: cytotoxicity call (relative viability < 0.9)
# Settings: 10 µM
row,SMILES,cytotoxicity call
1,C[C@H]1CN([C@@H](C)CO)C(=O)Cc2cc(NC(=O)Nc3ccc4c(c3)OCO4)ccc2O[C@@H]1CN(C)Cc1ccc(C(F)(F)F)cc1,inactive
2,C[C@H]1CN([C@@H](C)CO)C(=O)c2cccc(NC(=O)Nc3ccc4c(c3)OCO4)c2O[C@@H]1CN(C)Cc1ccc(Cl)c(Cl)c1,inactive
3,O=C(C[C@@H]1C=C[C@@H](NS(=O)(=O)c2ccccc2)[C@H](CO)O1)NCc1ccncn1,inactive
4,C[C@@H]1CN([C@H](C)CO)C(=O)Cc2cc(NS(=O)(=O)c3cn(C)cn3)ccc2O[C@H]1CN(C)Cc1ccc(C(=O)Nc2ccccc2N)cc1,inactive
5,COc1ccc2c3c(n(c2c1)C)[C@@H](CO)N(Cc1cc(cc(c1)OC)OC)C[C@]13CN(C1)S(=O)(=O)c1cn(cn1)C,inactive
6,C[C@H]1CN([C@@H](C)CO)C(=O)c2cccc(NC(=O)Nc3ccc(F)cc3)c2O[C@@H]1CN(C)Cc1ccc(Cl)c(Cl)c1,active
7,C[C@@H]1CN([C@H](C)CO)C(=O)Cc2cc(NC(=O)Cn3cnnn3)ccc2O[C@@H]1CN(C)Cc1ccc(C(=O)Nc2ccccc2N)cc1,inactive
8,CNC(=O)C[C@H]1CC[C@@H]2[C@H](COC[C@H](O)CN2C(=O)Nc2cccc(OC)c2)O1,inactive
9,C[C@H]1CN([C@@H](C)CO)C(=O)c2cccc(NC(=O)c3ccc(-c4nccs4)cc3)c2O[C@H]1CN(C)C(=O)Nc1ccc(C(F)(F)F)cc1,inactive
10,Cc1noc(C)c1S(=O)(=O)Nc1ccc2c(c1)CC(=O)N([C@@H](C)CO)C[C@@H](C)[C@@H](CN(C)C(=O)NC1CCCCC1)O2,inactive
11,COc1ccc(NC(=O)N(C)C[C@H]2OCCCC[C@H](C)Oc3ccc(NC(=O)Cc4ccccc4)cc3C(=O)N([C@H](C)CO)C[C@H]2C)cc1,inactive
12,COc1cc2c(cc1OC)CN(C(=O)[C@H]1[C@@H]3C(=O)O[C@@H](c4ccccc4)[C@@H](c4ccccc4)N3[C@@H](c3ccccc3OCCO)[C@]13C(=O)Nc1ccc(C#CC4(O)CCCCCC4)cc13)CC2,inactive
13,COc1ccc(NC(=O)Nc2ccc3c(c2)C(=O)N([C@H](C)CO)C[C@@H](C)[C@@H](CN(C)S(C)(=O)=O)O3)cc1,inactive
14,CCOC(=O)C[n+]1ccccc1C,inactive
15,COc1ccc(S(=O)(=O)N(C)C[C@@H]2OCCCC[C@@H](C)Oc3ccc(NC(=O)Nc4ccc(C(F)(F)F)cc4)cc3C(=O)N([C@H](C)CO)C[C@H]2C)cc1,inactive
16,C[C@H]1CN([C@@H](C)CO)C(=O)c2cc(NC(=O)NC3CCCCC3)ccc2O[C@H]1CN(C)C(=O)Nc1ccc(C(F)(F)F)cc1,inactive
17,Cc1noc(C)c1NC(=O)N(C)C[C@@H]1Oc2ccc(NC(=O)c3ccncc3)cc2CC(=O)N([C@H](C)CO)C[C@@H]1C,inactive
18,COc1cccc(CN(C)C[C@@H]2OCc3ccccc3-c3c(n(C)c4ccccc34)C(=O)N([C@H](C)CO)C[C@@H]2C)c1,inactive
19,COc1cccc(S(=O)(=O)Nc2ccc3c(c2)[C@H]2C[C@H](CC(=O)NC4CCCCC4)O[C@@H](CO)[C@H]2O3)c1,inactive
20,C[C@@H]1CCCCO[C@H](CN(C)S(=O)(=O)c2cccs2)[C@@H](C)CN([C@@H](C)CO)C(=O)c2cc(NC(=O)Nc3ccc(F)cc3)ccc2O1,inactive

row,SMILES,cytotoxicity call
1,C[C@H]1CCCCO[C@@H](CN(C)Cc2ccc(Cl)c(Cl)c2)[C@@H](C)CN([C@@H](C)CO)C(=O)c2cc(NC(=O)Nc3ccc(C(F)(F)F)cc3)ccc2O1,inactive
2,Cc1noc(C)c1NC(=O)N(C)C[C@H]1OCCCC[C@@H](C)Oc2ccc(NS(=O)(=O)c3cccs3)cc2C(=O)N([C@@H](C)CO)C[C@@H]1C,inactive
3,C[C@H]1CN([C@@H](C)CO)C(=O)c2cccc(NC(=O)C3CCOCC3)c2O[C@H]1CN(C)Cc1ccc(-c2ccccc2)cc1,inactive
4,CNC(=O)C[C@@H]1CC[C@@H]2[C@H](COC[C@@H](O)CN2C(=O)c2ccc3c(c2)OCO3)O1,inactive
5,C[C@@H]1CCCCO[C@@H](CN(C)S(=O)(=O)c2ccc(Cl)cc2)[C@H](C)CN([C@@H](C)CO)C(=O)c2cc(NS(=O)(=O)c3ccc(Cl)cc3)ccc2O1,inactive
6,CN(C)C(=O)C[C@@H]1C=C[C@H](NC(=O)C2CCOCC2)[C@@H](CO)O1,inactive
7,C[C@@H]1CCCCO[C@@H](CN(C)Cc2ccccc2)[C@H](C)CN([C@@H](C)CO)C(=O)c2cc(NC(=O)NC3CCCCC3)ccc2O1,inactive
8,CC(C)[C@@H](N)c1nc2ccccc2[nH]1,inactive
9,CCCC[P+](CCCC)(CCCC)Cc1ccc(NC(=O)[C@H](Cc2ccc3ccccc3c2)N/C(=N/C2CCCCC2)NC2CCCCC2)cc1,inactive
10,C[C@H](CO)N1C[C@H](C)[C@H](CN(C)Cc2ccc3c(c2)OCO3)Oc2ccc(NC(=O)Nc3cccc4ccccc34)cc2C1=O,inactive
11,Cc1ccc(S[C@]2(C(=O)NC(C)C)CC(=O)N(Cc3ccccc3Cl)[C@@H]2c2ccc(CO)cc2)cc1,inactive
12,c1ccc(CNC2CCCCC2)nc1,inactive
13,Cn1cnc(S(=O)(=O)N[C@H]2CC[C@H](CC(=O)NCC3CC3)O[C@@H]2CO)c1,inactive
14,COc1ccc(NC(=O)Nc2ccc3c(c2)[C@H]2C[C@@H](CC(=O)N4CCN(C)CC4)O[C@H](CO)[C@H]2O3)cc1,inactive
15,C[C@H](CO)N1C[C@H](C)[C@@H](CN(C)Cc2ccc(Cl)c(Cl)c2)Oc2ccc(NS(=O)(=O)c3ccc(F)cc3)cc2CC1=O,inactive
16,C[C@H]1CN([C@@H](C)CO)C(=O)c2cc(NC(=O)Nc3ccc(C(F)(F)F)cc3)ccc2O[C@@H]1CN(C)C(=O)Nc1ccc(F)cc1,inactive
17,C#CCSC1=N[C@@]2(COCc3ccc(OC)cc3)Oc3ccccc3[C@H]([C@H]2CO[Si](C)(C)C(C)(C)C)N1C(=O)c1ccccc1,inactive
18,O=C1CC[C@@H](C(=O)O)N1,inactive
19,O=C(C[C@H]1C[C@@H]2c3cc(NS(=O)(=O)c4ccc(F)cc4)ccc3O[C@@H]2[C@H](CO)O1)NCc1ccc(Oc2ccccc2)cc1,inactive
20,O=C(C[C@H]1CC[C@@H]2[C@H](COC[C@@H](O)CN2S(=O)(=O)c2ccc(Cl)cc2)O1)NCCN1CCCC1,inactive
